The source of these data is publication PMC4336329 (PLoS ONE, 2015).

Among all 310,000 compounds or so, about 2,200 (0.71%) showed an effect of 50% or more. Effects have a minus sign here. Some of the results follow.

The target of the assay is human ether-à-go-go-related gene (hERG) potassium channel (human, UniProt Q12809). Put plainly: primary screen, population patch clamp on CHO cells stably expressing hERG.
Sequence of human ether-à-go-go-related gene (hERG) potassium channel (Q12809 whole entry, looked up): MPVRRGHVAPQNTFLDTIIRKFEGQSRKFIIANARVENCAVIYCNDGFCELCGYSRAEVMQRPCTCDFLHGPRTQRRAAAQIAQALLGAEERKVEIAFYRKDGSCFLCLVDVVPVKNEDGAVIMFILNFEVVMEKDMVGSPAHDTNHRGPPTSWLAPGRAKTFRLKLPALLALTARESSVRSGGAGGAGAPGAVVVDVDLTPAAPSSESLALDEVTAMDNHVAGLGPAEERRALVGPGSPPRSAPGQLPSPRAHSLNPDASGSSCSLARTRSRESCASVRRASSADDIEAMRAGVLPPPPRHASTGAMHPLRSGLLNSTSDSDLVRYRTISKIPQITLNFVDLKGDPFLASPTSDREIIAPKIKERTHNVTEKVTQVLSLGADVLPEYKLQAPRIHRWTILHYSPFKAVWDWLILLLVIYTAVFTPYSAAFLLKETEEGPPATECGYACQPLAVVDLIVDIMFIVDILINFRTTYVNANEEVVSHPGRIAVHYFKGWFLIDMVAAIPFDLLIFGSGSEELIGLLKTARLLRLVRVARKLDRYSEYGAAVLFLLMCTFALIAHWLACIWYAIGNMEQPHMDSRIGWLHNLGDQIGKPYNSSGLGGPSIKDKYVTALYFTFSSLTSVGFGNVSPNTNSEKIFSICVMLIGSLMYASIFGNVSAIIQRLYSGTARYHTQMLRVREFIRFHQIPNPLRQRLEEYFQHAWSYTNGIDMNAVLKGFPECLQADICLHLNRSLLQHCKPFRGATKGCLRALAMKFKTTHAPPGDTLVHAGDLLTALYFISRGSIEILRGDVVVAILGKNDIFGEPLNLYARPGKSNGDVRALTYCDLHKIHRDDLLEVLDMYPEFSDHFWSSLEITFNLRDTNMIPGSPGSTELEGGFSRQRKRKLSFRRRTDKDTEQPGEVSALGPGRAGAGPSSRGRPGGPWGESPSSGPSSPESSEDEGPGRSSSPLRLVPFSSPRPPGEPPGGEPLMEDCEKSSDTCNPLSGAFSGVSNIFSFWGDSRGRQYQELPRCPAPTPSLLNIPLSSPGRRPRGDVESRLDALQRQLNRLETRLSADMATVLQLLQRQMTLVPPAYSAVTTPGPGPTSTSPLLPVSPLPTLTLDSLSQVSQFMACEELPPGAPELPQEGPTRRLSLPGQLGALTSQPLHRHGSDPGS
Take `O=C(NCc1ccccc1)C(c1cccnc1)N(C(=O)c1ccccn1)c1ccccc1F` (centres unmarked): the “hERG current change (%, negative = inhibition) at 1uM” value is on record as 10.1%.
On to `COc1ccc(NS(=O)(=O)c2ccc(C)c(C(=O)N(C)Cc3ccc(C)cc3)c2)cc1`, for which the “hERG current change (%, negative = inhibition) at 1uM” value worked out at 11.7%.
With `O=C1CC(c2ccccc2)CC(O)=C1C=NCCN1CCN(C(=O)Cc2ccccc2)CC1` (centres unmarked), the “hERG current change (%, negative = inhibition) at 1uM” value was -19.7%.
On to `CCC(=O)c1ccc(N2CCN(C(=O)c3cccs3)CC2)c(F)c1`, for which the “hERG current change (%, negative = inhibition) at 1uM” value stood at 0.503%.
On to `COc1ccc(NC(=O)COc2cccc3c2OC(C)(C)C3)cc1OC`, for which the “hERG current change (%, negative = inhibition) at 1uM” value stood at 11.7%.
As to `COc1cc(NC(=O)C2CCN(S(=O)(=O)c3cccnc3)CC2)cc(OC)c1OC`, the “hERG current change (%, negative = inhibition) at 1uM” value is -4.49%.
In the case of `Cc1[nH]c2ccccc2c1C(=O)CSCC(=O)O`, the “hERG current change (%, negative = inhibition) at 1uM” value stood at 5.4%.
For the molecule `COCCOC(=O)c1c(NC(=O)CSc2cccc[n+]2[O-])sc(C(N)=O)c1C`, the “hERG current change (%, negative = inhibition) at 1uM” value was 31.6%.
Regarding `O=C(NCc1ccco1)c1ccc(S(=O)(=O)c2cccc(S(=O)(=O)N3CCOCC3)c2)cc1`, the “hERG current change (%, negative = inhibition) at 1uM” value was 12.7%.
Regarding `Cc1cc(N2CCC(C(=O)NCC3CC3)CC2)nc(-c2ccccc2)n1`, the “hERG current change (%, negative = inhibition) at 1uM” value is reported as -53%.
Take `COc1ccc(CNC(=O)CC23CC4CC(CC(C4)C2)C3)cc1`: the “hERG current change (%, negative = inhibition) at 1uM” value is recorded as 16.8%.
Regarding `CC(=O)c1cn(CCCOc2ccccc2)c2ccccc12`, the “hERG current change (%, negative = inhibition) at 1uM” value is recorded as 6.39%.
Turning to `CCNc1sc(C(=O)c2cccs2)c(N)c1C#N`, the “hERG current change (%, negative = inhibition) at 1uM” value was determined as 5.91%.
Take `CCC(C)(C(=O)NC1CCCC1)N(Cc1cccs1)C(C)=O` (centres unmarked): the “hERG current change (%, negative = inhibition) at 1uM” value worked out at 13.9%.
For the molecule `Cc1ccc2[nH]c(=O)c(CN(Cc3ccc4c(c3)OCO4)Cc3nnnn3Cc3ccco3)cc2c1`, the “hERG current change (%, negative = inhibition) at 1uM” value came to 9.95%.
Turning to `CC(C)CC(=O)Nc1sc2c(c1C#N)CC(C)(C)NC2(C)C`, the “hERG current change (%, negative = inhibition) at 1uM” value came out at 0.254%.
In the case of `COc1ccc(/C=N/Nc2ccc(C(F)(F)F)cc2[N+](=O)[O-])cc1`, the “hERG current change (%, negative = inhibition) at 1uM” value is on record as 8.12%.
Regarding `COc1ccc(N2CCN(CCC(N)=O)CC2)cc1`, the “hERG current change (%, negative = inhibition) at 1uM” value came to 14.6%.
In the case of `CCOC(=O)Cc1ccc(NC(=O)c2ccc(C(C)(C)C)cc2)cc1`, the “hERG current change (%, negative = inhibition) at 1uM” value is given as 2.5%.
Regarding `CC(C)OC(=O)CN1CCN(c2ccc(Cl)cc2)CC1`, the “hERG current change (%, negative = inhibition) at 1uM” value is reported as 6.64%.
The figure for `C=CCn1c(C)csc1=Nc1ccc(C(C)=O)cc1` is 18.3%; for `COc1ccc(-c2coc3cc(O)ccc3c2=O)cc1` it is 1.37%.
With `COC(=O)C1=C(c2cc3ccccc3o2)C[C@@H]2CC[C@H]1N2C(=O)N1CCCC1`, the “hERG current change (%, negative = inhibition) at 1uM” value is on record as 7.5%.
For `O=C(Cc1ccc([N+](=O)[O-])cc1)Nc1ccc(Cl)cc1`, the “hERG current change (%, negative = inhibition) at 1uM” value is on record as 10.4%.
In the case of `Cc1cc(C(=O)NNC(=O)c2ccccc2[N+](=O)[O-])c(C)o1`, the “hERG current change (%, negative = inhibition) at 1uM” value amounted to 7.43%.
`CCOc1cc(C)c(Cl)cc1S(=O)(=O)NCCOC`: the “hERG current change (%, negative = inhibition) at 1uM” value came out at 7.32%.
As to `C=CCNc1nc(N)c([N+](=O)[O-])c(NCc2ccccc2)n1`, the “hERG current change (%, negative = inhibition) at 1uM” value came to 9.55%.
Turning to `O=C(Nc1ccc(Sc2ccc(Br)cc2)cc1)c1ccco1`, the “hERG current change (%, negative = inhibition) at 1uM” value stood at 10.9%.
The value for `CC(NC(=O)CCN1C(=O)c2ccccc2C1=O)c1ccccc1` (centres unmarked) was 12%.
For the molecule `Cc1cccc(C(=O)N/N=C2\CS(=O)(=O)N(C)c3ccsc32)c1`, the “hERG current change (%, negative = inhibition) at 1uM” value turned out to be 2.78%.
`Cc1cccc(N(CC(=O)NC2CCCCC2)C(=O)CCC(=O)Nc2nccs2)c1`: the “hERG current change (%, negative = inhibition) at 1uM” value worked out at 15.4%.
The value for `COc1ccc(OCC(O)CNC2CCCC2)cc1.Cl` (centres unmarked) was 11.4%; that for `C=C(C)c1cccc(C(C)(C)NC(=O)Nc2ccc(OC)nc2)c1` was -0.414%; that for `COC(=O)c1ccc(OC)c(Cn2c(=O)n(C)c(=O)c3sccc32)c1` was 12.5%.
Take `COc1ccc(N(CC(=O)Nc2ccc(C(C)C)cc2)S(=O)(=O)c2c(C)noc2C)cc1`: the “hERG current change (%, negative = inhibition) at 1uM” value amounted to 9.97%.
As for `CCc1ccccc1NC(=O)c1cc(=O)c2ccccc2o1`, the “hERG current change (%, negative = inhibition) at 1uM” value worked out at 8.38%.
The value for `O=C(CN1CCC(O)(c2ccc3c(c2)OCO3)CC1)OC1CCCCC1` was 8.95%; that for `CC1CCN(c2cc(N3CCN(C(=O)c4ccc(F)c(F)c4)CC3)c([N+](=O)[O-])cc2F)CC1` was 9.61%; that for `O=C1NC(=O)c2cc(Br)cc3cccc1c23` was 15.1%.
In the case of `COc1ccc(-c2cc3c(=O)n(CC(=O)NCCCc4ccccc4)ncn3n2)cc1`, the “hERG current change (%, negative = inhibition) at 1uM” value was 13.2%.
The value for `CCN(C1CCCCC1)S(=O)(=O)c1c(C)n(C)c(=O)n(C)c1=O` was -1.2%; that for `COc1ccc(CN2CCN(CCCc3ccccc3)CC2)c(OC)c1` was -64.9%; that for `Cc1ccc(S(=O)(=O)Oc2ccc(C3C4=C(CCCC4=O)N(CCC(=O)O)C4=C3C(=O)CCC4)cc2Cl)cc1` was 6.26%.
As for `CC1(C)C2CC=C(/C=N/NC(=O)c3ccc(Cl)cc3)C1C2` (centres unmarked), the “hERG current change (%, negative = inhibition) at 1uM” value is listed as 7.54%.
The figure for `Cc1cc(N/N=C/c2cccc(F)c2)nc(NCc2ccccc2)n1` is 1.45%; for `Cl.c1ccc(CCn2nnnc2CN2CCCc3ccccc32)cc1` it is 15.3%; for `O=C(Nc1ccccc1)Nc1nnc(-c2ccccc2)o1` it is 7.22%.
`COC(=O)C1=C(c2ccc(-c3ccccc3)c(F)c2)C[C@@H]2CC[C@H]1N2C(=O)NC(C)C`: the “hERG current change (%, negative = inhibition) at 1uM” value was 12.8%.
As to `O=C(COC(=O)/C=C/c1ccc(Br)o1)Nc1ccc2[nH]c(=O)[nH]c2c1`, the “hERG current change (%, negative = inhibition) at 1uM” value worked out at 3.55%.
For the molecule `CC1=CC(C)(C)NC(=S)N1c1ccc(C)c(C)c1`, the “hERG current change (%, negative = inhibition) at 1uM” value stood at 4.93%.
Take `COc1ccc(CCNc2c(N)n(Cc3ccccc3)c(=O)[nH]c2=O)cc1OC`: the “hERG current change (%, negative = inhibition) at 1uM” value was 10.5%.
On to `CC(=O)N1CCc2cc(S(=O)(=O)CCC(=O)N3CCN(c4cc(C)ccc4C)CC3)ccc21`, for which the “hERG current change (%, negative = inhibition) at 1uM” value is on record as 9.91%.
The figure for `Cc1cccn2c(=O)c3cc(C(=O)NC4CCCC4)c(=N)n(C4CCCCC4)c3nc12` is -81.9%; for `COc1ccc(Cl)cc1S(=O)(=O)NC(C)C(=O)NCc1cccnc1` (centres unmarked) it is 1.3%; for `CC(Oc1ccc2c3c(c(=O)oc2c1)CCCC3)C(=O)NC1CC(C)(C)NC(C)(C)C1` (centres unmarked) it is 10.3%.
For the molecule `CC1CC(C)CN(CCC(=O)Nc2ccc3c(c2)CCC3)C1.Cl` (centres unmarked), the “hERG current change (%, negative = inhibition) at 1uM” value is reported as -6.28%.
For `OCCC1CN(Cc2nc3c(s2)CCCC3)CCN1Cc1ccccc1` (centres unmarked), the “hERG current change (%, negative = inhibition) at 1uM” value amounted to 6.52%.
Turning to `COc1ccc(-c2nc(CS(=O)CC(=O)NCCCN3CC(C)CC(C)C3)c(C)o2)cc1OC` (centres unmarked), the “hERG current change (%, negative = inhibition) at 1uM” value is 26.5%.
Consider `Cn1nccc1C(=O)N1CCCC(Nc2ccc(F)cc2)C1` (centres unmarked), for which the “hERG current change (%, negative = inhibition) at 1uM” value came out at 13.5%.
The value for `CC(C)(C)OC(=O)N[C@@H](Cc1ccccc1)C(=O)N[C@@H](CO)[C@H](O)[C@@H]1C[C@@H]1C(=O)NC1CC1` was 8.81%; that for `CCOC(=O)c1sc(NC(=O)Cc2ccc(F)cc2)nc1C` was -0.261%; that for `CSc1nc2ccccc2c(=O)n1-c1cccnc1` was 11%.
Take `O=S(=O)(c1ccc(F)cc1)N1CCCC(c2nc(-c3ccc(F)cc3)no2)C1` (centres unmarked): the “hERG current change (%, negative = inhibition) at 1uM” value was 7.04%.
Turning to `O=C(NCc1ccccc1)NC1(C(=O)N2CCN(c3ncccn3)CC2)CCCCC1`, the “hERG current change (%, negative = inhibition) at 1uM” value is 11.4%.
As for `O=C(NCCCCNC(=O)c1cccs1)c1cccs1`, the “hERG current change (%, negative = inhibition) at 1uM” value is on record as 15.2%.
With `CC(=O)c1cccc(NC(=O)Cn2nc(-c3ccc(Cl)cc3)ccc2=O)c1`, the “hERG current change (%, negative = inhibition) at 1uM” value is -14.3%.
The figure for `COc1cccc(-c2cc(C(=O)Nc3cnn(Cc4ccc(F)cc4)c3)no2)c1` is 13.4%.
In the case of `Cc1ccc(C(=O)N2CCC(C(=O)c3c(C)cc(C)cc3C)CC2)cc1`, the “hERG current change (%, negative = inhibition) at 1uM” value is reported as 9.88%.
In the case of `COCc1nnc(NC(=O)c2ccccc2Oc2ccccc2)s1`, the “hERG current change (%, negative = inhibition) at 1uM” value came out at 7.54%.
On to `Cl.c1ccc(CN2CCN(CCN3CCn4c3nc3ccccc34)CC2)cc1`, for which the “hERG current change (%, negative = inhibition) at 1uM” value was -62.3%.
Take `CCCc1ccc(Oc2c(-c3ccc(O)c(C)c3O)n[nH]c2C)cc1`: the “hERG current change (%, negative = inhibition) at 1uM” value was -9.65%.
Take `Cc1ccc(N2CC(NC(=O)C(=O)c3c[nH]c4ccccc34)CC2=O)cc1C` (centres unmarked): the “hERG current change (%, negative = inhibition) at 1uM” value is recorded as 4.06%.
For the molecule `Cc1cc(F)ccc1S(=O)(=O)N1CCCOC1CNC(=O)C(=O)NCCN1CCOCC1` (centres unmarked), the “hERG current change (%, negative = inhibition) at 1uM” value is recorded as 14.7%.
The figure for `CN(C)S(=O)(=O)N1CCN(c2ccccc2Cl)CC1` is -0.48%; for `O=c1c(-c2ccco2)[n+]([O-])c2ccccc2n1OCc1ccccc1[N+](=O)[O-]` it is -4.87%.
The value for `Cc1nc2c(=O)[nH]c3ccccc3c2o1` was 4.63%; that for `CCOC(=O)C1=C(C)OC(N)=C(C#N)C1c1cc2c(cc1[N+](=O)[O-])OCO2` (centres unmarked) was 2.27%.
On to `CC(=O)Oc1ccc(C(=O)[C@H]2[C@H]3C(=O)N(c4ccc5ccccc5c4)C(=O)[C@H]3[C@@H]3C=CC=NN32)cc1`, for which the “hERG current change (%, negative = inhibition) at 1uM” value is on record as 3.38%.
Consider `Cc1ccc(CN2CC(C(=O)Nc3ccc(F)c([N+](=O)[O-])c3)CC2=O)cc1` (centres unmarked), for which the “hERG current change (%, negative = inhibition) at 1uM” value is -1.97%.
Take `c1ccc(CSc2ccc(-c3ccco3)nn2)cc1`: the “hERG current change (%, negative = inhibition) at 1uM” value is 4.81%.
Take `Cc1ccc(/C=N/Nc2cc(C)nc(N3CCOCC3)n2)cc1`: the “hERG current change (%, negative = inhibition) at 1uM” value is listed as 13.8%.
Consider `COc1cccc(C2=NOC(C(=O)N3CCN(c4ccccc4)CC3)C2)c1OC` (centres unmarked), for which the “hERG current change (%, negative = inhibition) at 1uM” value came out at 12.5%.
Regarding `Cc1ccc(CSc2nnc(CCCCCNC(=O)OC(C)(C)C)o2)cc1`, the “hERG current change (%, negative = inhibition) at 1uM” value is listed as 6.41%.
The value for `CCn1c(=O)cc(OCC(=O)N2CCN(C(=O)c3ccco3)CC2)c2ccccc21` was 7.73%; that for `COc1cc(NC(=O)CCn2c(=O)oc3ccccc32)cc(OC)c1OC` was 17.7%; that for `Cc1ccc(C2CC(=O)C(C=NCCN3CCN(C(=S)Nc4ccccc4)CC3)=C(O)C2)cc1` (centres unmarked) was -0.928%.
